From PubChem BioAssay AID1159614 (National Center for Advancing Translational Sciences (NCATS), 2016)
Among all 45,000 compounds or so, about 65 (0.1%) were called active. Calls come from the whole dose curve; as a rule, active = well fitted activation curve with a large enough effect; inconclusive = small, poorly fitted or top-dose-only effect; inactive = no such curve, though single readings can be large or run the other way. The list shows a part of the results.

target: Galactocerebrosidase (Homo sapiens) (UniProt P54803); assay: A Novel Cell-Based Assay to Identify Small Molecules for B -Galactocerebrosidase; settings: 145M-Twi-hGALC-G270D cells (Twitcher mouse brain line with human GALC G270D), HMU-beta-Gal fluorescence, 48 h; series mostly up to 57.5 µM; activation: at the top concentration; note: 0% is about no effect; nearly all actives have a fitted effect of over 65% in size
How it was run: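 Mutant human GALC (G270D), stably expressed in a Twitcher mouse brain cell line lacking endogenous GALC, is measured in live-treated cells via 6-hexadecanoylamino-4-methylumbelliferyl-β-galactoside hydrolysis (0.1 mM final, pH 5.2) with fluorescent detection.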

UniProt P54803, sequence (P54803 whole entry, looked up): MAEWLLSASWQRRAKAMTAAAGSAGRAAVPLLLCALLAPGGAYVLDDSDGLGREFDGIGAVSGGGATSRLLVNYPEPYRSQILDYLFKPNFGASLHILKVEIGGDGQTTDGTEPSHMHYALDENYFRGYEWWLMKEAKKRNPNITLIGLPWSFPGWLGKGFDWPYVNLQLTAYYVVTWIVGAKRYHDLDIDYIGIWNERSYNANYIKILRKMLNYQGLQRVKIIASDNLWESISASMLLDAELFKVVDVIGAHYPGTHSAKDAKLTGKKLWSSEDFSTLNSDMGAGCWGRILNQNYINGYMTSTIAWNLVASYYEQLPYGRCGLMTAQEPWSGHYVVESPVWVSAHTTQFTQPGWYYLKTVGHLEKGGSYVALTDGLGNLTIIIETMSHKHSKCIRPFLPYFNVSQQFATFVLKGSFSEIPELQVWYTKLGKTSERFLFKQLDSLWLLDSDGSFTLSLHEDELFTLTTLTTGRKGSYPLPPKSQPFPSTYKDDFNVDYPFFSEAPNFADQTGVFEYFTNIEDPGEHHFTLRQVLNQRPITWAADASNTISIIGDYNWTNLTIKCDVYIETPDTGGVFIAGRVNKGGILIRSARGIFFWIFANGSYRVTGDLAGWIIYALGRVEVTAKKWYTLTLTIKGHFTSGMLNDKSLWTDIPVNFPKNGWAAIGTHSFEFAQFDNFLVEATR

Compound | activation
COC(=O)[C@H]1[C@H]2C[C@@H]3c4[nH]c5cc(OC)ccc5c4CCN3C[C@H]2C[C@@H](OC(=O)COc2ccc(OC)cc2)[C@@H]1OC | inactive: -26.3%
CCOc1ccc(C(=O)NCC(c2ccc(Cl)cc2)N2CCCCC2)cc1 (centres undefined) | inactive: -7.97%
CC(=O)C1=C(c2ccc(F)cc2)N(C(C)=O)n2c(nnc2C2CCCCC2)S1 | inactive: -2%
CCCNC(=O)CSc1c(CCC)cnc2c1c(=O)n(C)c(=O)n2C | inactive: -12.5%
CC(C)COCC(CN(Cc1ccccc1)c1ccccc1)N1CCCC1 (centres undefined) | inactive: -5.22%
Cc1cc(C)c(NC(=O)C(C)n2c(=O)cc(-c3ccccc3)c3c(C)nn(C)c32)c(C)c1 (centres undefined) | inactive: -13.7%
COc1ccc(-c2nnn3c2nc(NCc2ccc(C)cc2)c2ccccc23)cc1 | inactive: -0.834%
CCCCNc1ccc(-c2nc(-c3ccccn3)no2)cc1[N+](=O)[O-] | inactive: 3.08%
Cc1ccccc1C(=O)OCc1cc(=O)n2nc(C3CCCCC3)sc2n1 | inactive: -11.4%
Cc1nnc2c(N3CCN(c4ccc(F)cc4)CC3)nc3ccc(C(=O)c4ccccc4)cc3n12 | inactive: -11.1%
O=C(CN1C(=O)C2(SCC(=O)N2c2cccc(F)c2)c2ccccc21)NCCc1ccccc1 (centres undefined) | inactive: -14.7%
O=C(CCOCCOCCOCCOCCC(=O)Nc1c(I)cc(I)c(C(=O)O)c1I)Nc1c(I)cc(I)c(C(=O)O)c1I | inactive: -5.02%
CCOC(=O)c1cnc(N2CCN(c3cccc(C)c3C)CC2)c2ccccc12 | inactive: -12.8%
O=C(NCCc1csc(-c2cccnc2)n1)c1ccccc1 | inactive: -9.13%
CCOC(=O)c1cc(-c2ccc(OC)c(S(=O)(=O)NCc3ccccc3Cl)c2)on1 | inactive: -15.6%
CC1CCCCN1CCCNC(=O)CN1C(=O)CSc2ccc(S(=O)(=O)N3CCOCC3)cc21 (centres undefined) | inactive: -4.28%
CCc1ccc(NC(=O)Nc2ccccc2OCc2cc(=O)n3ccccc3n2)cc1 | inactive: -7.69%
COc1ccc(OC)c(NC(=O)Cn2ccn(-c3ccc(OC)c(OC)c3)c(=O)c2=O)c1 | inactive: -5.78%
CCc1c(C)sc2c1CCN(C(=O)Nc1ccccc1C(=O)OC)C2c1ccc(OC)cc1 (centres undefined) | inactive: -18.9%
Cc1ccc(NS(=O)(=O)c2ccc3c(c2)CC(=O)N3)cc1Cl | inactive: -20.5%

Compound | activation
COc1ccc(C)cc1NC(=O)c1c2c(nc3ccccc13)C(=O)N(C1CCCCC1)C2 | inactive: -14.7%
Cc1ccc(Cl)cc1NC(=O)C(Cc1ccccc1)NS(=O)(=O)c1cccc2nsnc12 (centres undefined) | inactive: -12.5%
CCOc1ccc(Br)cc1C1C(C(=O)OC)=C(C)NC2=C1C(=O)c1ccccc12 (centres undefined) | inactive: -21.2%
CCN(C(=O)CSc1ncc2c(n1)-c1cc(Cl)ccc1N(Cc1ccccc1)S2(=O)=O)c1cccc(C)c1 | inactive: -13.1%
Cc1ccc(-c2cc3ncc(C(=O)c4cc(Cl)c(C)cc4O)cn3n2)cc1 | inactive: -6.87%
NC(=O)c1ncn([C@@H]2O[C@H](CO)[C@@H](O)[C@H]2O)n1 | inactive: -2.25%
CCn1c(=O)cc(OCC(=O)N(C)c2ccc(OC)cc2)c2ccccc21 | inactive: -14%
CCOc1ccc(NC(=O)CN2C(=O)C(c3ccc(Cl)cc3)=NC2(C)C)cc1 | inactive: -23.5%
CCC(=O)N1CCc2cc(Br)cc(S(=O)(=O)N3CCCC(C(=O)Nc4cc(C)ccc4OC)C3)c21 (centres undefined) | inactive: 9.5%
O=C(NCc1ccc(Cl)cc1)C1=Cc2cc(Br)ccc2OC1 | inactive: -8.43%
Cc1ccc(Cl)cc1N1CCN(C(=O)c2cc3ccc4cccnc4c3[nH]2)CC1 | inactive: -2.34%
CC(C)c1ccc(C2=CC(c3cccc(Cl)c3)n3c(nc4ccccc43)N2)cc1 (centres undefined) | inactive: -18.4%
CCC(CC)(CC(=O)Nc1cccc(/C=C/c2nc(C3CCC3)cs2)c1)C(=O)O | inactive: -12.7%
COc1ccc(Cl)cc1C(=O)Nc1ccc2nc(Nc3cccc(Cl)c3)cc(C)c2c1 | inactive: -6.88%
CCCc1ccc(S(=O)(=O)N2CCC(c3nnc(-c4cccc(C)c4)o3)CC2)cc1 | inactive: 3.73%
COc1cc(OC)c(NC(=O)c2c(N3CCCC3=O)c3cc(C)ccc3n2C)cc1Cl | inactive: -10.1%
COc1ccc(OC)c(CNC(=O)c2ccc3nc(C(C)C)oc3c2)c1 | inactive: 1.62%
CC(C)Oc1ccc(CNC(=O)c2ccc3c(c2)nc2n3CCCCC2)cc1 | inactive: -24.1%
CCOc1ccccc1NC(=O)Cn1ncc2c([nH]c3ccccc32)c1=O | inactive: -8.35%
CCn1c(=O)c2cc(C(=O)NCCCN3CCN(c4ccc(F)cc4)CC3)sc2c2ccccc21 | inactive: -25.7%

Compound | activation
Cc1ccccc1OCC(=O)Nc1nnc(S(=O)(=O)N2CCCC2)s1 | inactive: -5.71%
CCOc1ccc(N2CC(c3nc4ccccc4n3CCCCOc3ccc(OC)cc3)CC2=O)cc1 (centres undefined) | inactive: -19.6%
Cc1cc(=O)n2nc(N3CCC(C(=O)Nc4c(C)cccc4C)CC3)sc2n1 | inactive: -10%
COc1ccc(C2=C(C)C(=O)N(Cc3ccc(C(=O)NC(C)c4ccccc4)cc3)S2(=O)=O)cc1 (centres undefined) | inactive: -13.1%
CCOC(=O)[C@H](CCc1ccccc1)N[C@@H](C)C(=O)N1[C@H](C(=O)O)C[C@@H]2CCC[C@@H]21 | inactive: -16.4%
Cc1cccc(OC(C)C(=O)Nc2nonc2-c2ccc(Br)cc2)c1C (centres undefined) | inactive: -12.8%
O=C(NC1CCCCCC1)C1c2ccccc2C(=O)N1Cc1ccc(F)cc1 (centres undefined) | inactive: -16.6%
COc1ccc(CNC(=O)CN2C(=O)CSc3ccc(S(=O)(=O)N(C)C)cc32)cc1 | inactive: -11.4%
Cc1cccc(N2C(=O)CSC23C(=O)N(CC(=O)Nc2cccc(Cl)c2)c2ccccc23)c1 (centres undefined) | inactive: -18.4%
CC1CCN(S(=O)(=O)c2cc3c4c(c2)C(C)C(=O)N4CCC3)CC1 (centres undefined) | inactive: -15.3%
CCN(CC)c1ccc(NC(=O)CN2CCN(c3ccccc3OC)CC2)cc1 | inactive: -16.7%
Oc1c(C(c2ccccc2)N2CCOCC2)sc2nc(-c3ccco3)nn12 (centres undefined) | inactive: -12.8%
CCc1cccc(NC(=O)Cn2c(=O)n(CCC(=O)NCc3ccccc3Cl)c(=O)c3sccc32)c1 | inactive: 0.55%
CCOC(=O)c1cc(C)n(CC2CCC(C(=O)Nc3cccc(Cl)c3)CC2)c1C (centres undefined) | inactive: -2.51%
Cc1cc(C)cc(NC(=O)c2sc3nc4n(c(=O)c3c2C)N=C(c2ccccc2)CS4)c1 | inactive: -17.5%
Nc1c(C(=O)Nc2cccc(F)c2)nnn1-c1cccc(C(F)(F)F)c1 | inactive: -13.3%
COc1ccccc1C(=O)Nc1cccc(C(=O)OCc2cc(=O)n3cc(C)sc3n2)c1 | inactive: -7.34%
CCOC(=O)c1c(C)[nH]c(C)c1S(=O)(=O)N1CCC(C(=O)Nc2cc(Cl)ccc2OC)CC1 | inactive: 1.16%
Cc1cc(C)c(NC(=O)c2sc3nc(C)cc(C)c3c2NC(=O)c2ccccc2)c(C)c1 | inactive: 0.888%
